From article PMC6919601, “Identification of Plasmodium dipeptidyl aminopeptidase allosteric inhibitors by high throughput screening” (PLoS ONE, 2019) come the findings set out here.

SMILES strings stand for the structures. About 230 (0.21%) of roughly 110,000 compounds showed an effect of 50% or more. The list shows a part of the results.
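Note: 30 min substrate incubation versus DMSO and 10 µM JCP410 controls.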

DPAP1, sequence (Q8IIJ9 whole entry, looked up): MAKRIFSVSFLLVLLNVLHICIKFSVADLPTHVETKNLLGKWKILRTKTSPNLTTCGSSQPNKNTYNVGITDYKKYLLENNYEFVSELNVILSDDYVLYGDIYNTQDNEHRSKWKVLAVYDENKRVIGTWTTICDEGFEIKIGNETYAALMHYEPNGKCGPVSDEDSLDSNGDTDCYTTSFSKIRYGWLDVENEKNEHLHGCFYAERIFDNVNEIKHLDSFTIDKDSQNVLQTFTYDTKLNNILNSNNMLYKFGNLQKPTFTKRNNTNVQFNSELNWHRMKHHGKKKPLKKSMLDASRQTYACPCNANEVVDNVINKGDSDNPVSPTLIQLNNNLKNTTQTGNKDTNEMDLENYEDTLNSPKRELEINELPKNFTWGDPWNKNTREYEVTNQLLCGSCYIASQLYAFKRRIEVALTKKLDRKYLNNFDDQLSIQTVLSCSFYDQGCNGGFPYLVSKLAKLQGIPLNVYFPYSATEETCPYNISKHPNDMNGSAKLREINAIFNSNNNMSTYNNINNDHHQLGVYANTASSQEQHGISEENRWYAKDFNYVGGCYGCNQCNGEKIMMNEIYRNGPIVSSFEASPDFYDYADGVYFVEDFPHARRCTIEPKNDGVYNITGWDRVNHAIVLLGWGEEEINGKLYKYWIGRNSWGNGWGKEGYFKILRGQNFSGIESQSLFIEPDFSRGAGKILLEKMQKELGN

This assay concerns the target DPAP1 (Plasmodium falciparum, UniProt Q8IIJ9). The experiment in a line: primary screen, percent inhibition; read by cleavage of a fluorogenic dipeptide substrate; higher = more effect of the substance. More on the design: species or system P. falciparum D10 trophozoite lysates; single well.
In the case of `Nc1c(C(=O)c2ccc(F)cc2)oc2ccc(Cl)cc12`, the “% Inhibition @ 10 uM” value is reported as -4.4%.
As to `CCC1NC(=O)c2ccccc2N1c1cccc(Cl)c1` (centres unmarked), the “% Inhibition @ 10 uM” value is recorded as -2.1%.
The result for `Cc1cccn2c(=O)c(/C=C(\C#N)C(=O)N3CCOCC3)c(Oc3ccccc3)nc12` reads 2%; that for `CCOC(=O)c1[nH]c(C)c(C(=O)c2c(F)cccc2Cl)c1C`, -2.32%; that for `O=C(O)C1CSC(c2cccc3ccccc23)N1` (centres unmarked), -0.216%.
The same measure for `Cn1c(SCC(=O)c2c[nH]c3ccccc23)nnc1C1CCCCC1`: 0.032%.
As to `COc1cccc(C(=O)NCCC(C)C)c1`, the “% Inhibition @ 10 uM” value amounted to 32.1%.
The result for `CCOC(=O)c1ccc2nc(C(F)(F)F)nc(NCCCN3CCCC3=O)c2c1` reads -1.11%.
The result for `Nc1c(NCCO)c2ccccc2oc1=O` reads 0.815%; that for `COc1ccc(C2CC(C(F)(F)F)n3ncc(C(=O)Nc4ccccc4SC)c3N2)cc1` (centres unmarked), 2.7%; that for `c1cn2c3c(n1)CCCc3c1cc(C3CCCCC3)ccc12`, -0.128%.
With `Cc1cc(-c2ccccc2)c(C#N)c(N)n1`, the “% Inhibition @ 10 uM” value is on record as -3.58%.
The result for `CCC(C)NC(=O)c1cc(-c2ccc(OC)cc2)on1` (centres unmarked) reads 1.37%; that for `CCC(=O)Nc1nc(-c2ccc(OC)c(Br)c2)cs1`, -1.81%; that for `COc1ccc(NS(=O)(=O)c2ccc(N/C=C3/C(=O)NC(=O)N(c4ccccc4)C3=O)cc2)cc1`, -4.41%.
The result for `COc1ccc(C2(O)C[N+](c3ccccc3OC)=C3CCCCN32)cc1` (centres unmarked) reads 6.14%; that for `COc1ccc(NC(=O)CCC2CCCCC2)cc1`, -4.01%.
Turning to `Fc1ccc(N2CC(c3ccc(Cl)cc3Cl)C(c3cccs3)=N2)c(F)c1` (centres unmarked), the “% Inhibition @ 10 uM” value is on record as -3.04%.
On to `COc1cccc(NC(=O)c2c(-c3c(Cl)cccc3Cl)noc2C)c1`, for which the “% Inhibition @ 10 uM” value is -3.69%.
The same measure for `O=C(COc1ccc(S(=O)(=O)NC2CCCCC2)cc1)NC1CC1`: -2.09%.
The result for `COc1ccc(OC)c(C2CC(=O)C3=C(C2)NC(=O)CC3c2c(F)cccc2Cl)c1` (centres unmarked) reads -4.16%; that for `O=C(CCCC(=O)c1ccccc1)Nc1ccc(Cl)cn1`, -3.21%.
The result for `O=C1NC(=O)C2C1C1(c3ccccc3)NC2(c2ccccc2)C2C(=O)NC(=O)C21` (centres unmarked) reads 1.61%; that for `CN1CCN(CC(=O)N2CCCC2=O)CC1`, 0.986%; that for `CCOC(=O)c1c(CN2CCN(C)CC2)n(Cc2ccccc2)c2cc(Br)c(O)cc12`, 3.34%.
As for `CCC(C)c1ccccc1OCC(=O)Nc1cc(OC)ccc1OC` (centres unmarked), the “% Inhibition @ 10 uM” value is -3.26%.
The same measure for `CCOc1ccccc1N1C(=O)c2ccc(S(=O)(=O)c3ccc(C(=O)O)cc3)cc2C1=O`: 7.03%.
With `Cc1ccc(C)c(Cn2nnc(C(=O)NCCc3ccc(Cl)cc3)c2N)c1`, the “% Inhibition @ 10 uM” value is on record as 1.26%.
For the compound `CCCCNC(=O)N1CCc2ccccc2C1`, the “% Inhibition @ 10 uM” value is recorded as 2.17%.
As to `COc1ccc(OCC(=O)N2c3ccccc3C(Nc3ccccc3)CC2C)cc1` (centres unmarked), the “% Inhibition @ 10 uM” value is recorded as 3.09%.
The same measure for `Cn1cc(S(=O)(=O)N2CCOCC2)cc1C(=O)NC1CCCc2ccccc21` (centres unmarked): -3.42%; for `Cc1nc(NC(=O)c2ccc(Br)cc2)sc1C(=O)N(C)C`: 8.71%.
The result for `COc1ccc(Cl)c(Cn2c(NC3CCCCC3)nc3c2c(=O)n(C)c(=O)n3C)c1` reads -3.24%.
As to `CC1(C)CC(=O)C2=C(C1)N(CCc1ccccc1)C(=O)C2(NC(=O)c1ccco1)C(F)(F)F` (centres unmarked), the “% Inhibition @ 10 uM” value was -1.72%.
The result for `CC(=O)N1C(=N)S/C(=C/c2cc3ccc(C)cc3nc2N2CCOCC2)C1=O` reads 1.96%; that for `CC(NC(=O)Cn1cccc1C(=O)c1ccccc1)c1ccc2c(c1)OCCO2` (centres unmarked), -0.522%; that for `CCc1ccc(OCC(=O)N(Cc2cccc(F)c2)Cc2ccco2)cc1`, -1.07%.
In the case of `Cc1cc(-c2ccc(S(=O)(=O)N3CCN(C)CC3)cc2)on1`, the “% Inhibition @ 10 uM” value was -1.48%.
As for `CCCCN(C)CCCNC(=O)C1CC(=O)N(Cc2ccc(OC)cc2)C1` (centres unmarked), the “% Inhibition @ 10 uM” value is recorded as 3.24%.
The result for `CCC(C)NC(=O)c1cc2cc3ccc(C)cc3nc2s1` (centres unmarked) reads 0.128%.
As for `CCc1ccc(C2=CC(c3cc(OC)c(OC)c(OC)c3)n3ncnc3N2)cc1` (centres unmarked), the “% Inhibition @ 10 uM” value turned out to be 3.32%.
The same measure for `O=C(COc1ccc(Cl)cc1Cl)N1CCC(Cc2ccccc2)CC1`: 1.38%; for `CC1(C)NC(=O)N(CN2CCN(CN3C(=O)NC(C)(C)C3=O)CC2)C1=O`: -1.3%.
As to `CC1(C)COC(c2cccn2Cc2ccc(F)cc2)=N1`, the “% Inhibition @ 10 uM” value was 3.48%.
The result for `CC(NC(=O)C1CCCN1C(=O)OCc1ccccc1)c1ccccc1` (centres unmarked) reads -2.45%; that for `CCCCNCc1c(C(=O)O)c(C)n(Cc2cc(C)ccc2C)c1C`, -0.23%; that for `COc1ccc(N(CC(=O)N(C)C)S(=O)(=O)c2ccc(C)cc2)c(OC)c1`, 0.324%.
The same measure for `Nc1c(Cl)cc(-c2nc3ccccc3o2)cc1Cl`: 6.79%; for `Cc1ccc(CNC(=O)C2CCCN(c3cnccn3)C2)cc1` (centres unmarked): 3.88%.
On to `Cc1ccnc(NC(c2ccccc2Cl)c2ccc3cccnc3c2O)c1` (centres unmarked), for which the “% Inhibition @ 10 uM” value was -10.8%.
